# Source: the supplement of paper PMC8728848
# This is one part of the list.
# B1: Neuropilin-1 (Homo sapiens), O14786 (protein)
# chain: FKCMEALGMESGEIHSDQITASSQYSTNWSAERSRLNYPENGWTPGEDSYREWIQVDLGLLRFVTAVGTQGAISKETKKKYYVKTYKIDVSSNGEDWITIKEGNKPVLFQGNTNPTDVVVAVFPKPLITRFVRIKPATWETGISMRFEVYGCKITDYPCSGMLGMVSGLISDSQITSSNQGDRNWMPENIRLVTSRSGWALPPAPHSYINEWLQIDLGEEKIVRGIIIQGGKHRENKVFMRKFKIGYSNNGSDWKMIMDDSKRKAKSFEGNNNYDTPELRTFPALSTRFIRIYPERATHGGLGLRMELLGCEVE
# Assays:
# Experiment in all cases: glycan array binding signal (z-score within array); higher = stronger binding
# Details in all cases: glycan notation: IUPAC condensed, linker removed
# [1] = biological target: Neu5Ac(a2-6)GalNAc
# Method in brief: (§1)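 Glycan array data were curated from 3228 arrays in the Consortium for Functional Glycomics database and kept only where the protein sequence was available. Glycan names were converted to IUPAC-condensed notation, and columns mapping to the same glycan were averaged. The binding signal is a within-array Z-score, averaged across arrays of the same protein sequence at different concentrations or buffers and across linkers. Negative Z-scores can be read as non-binding.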
# [2] = biological target: Neu5Ac(a2-6)GalNAc(b1-4)GlcNAc
# Method in brief: as §1
# [3] = biological target: Neu5Ac(a2-6)GlcNAc(b1-4)GlcNAc
# Method in brief: as §1
# [4] = biological target: Neu5Ac(a2-6)GlcNAc(b1-4)GlcNAc(b1-4)GlcNAc
# Method in brief: as §1
# [5] = biological target: Neu5Ac(a2-8)Neu5Ac
# Method in brief: as §1
# [6] = biological target: Neu5Ac(a2-8)Neu5Ac(a2-3)Gal(b1-4)Glc
# Method in brief: as §1
# [7] = biological target: Neu5Ac(a2-8)Neu5Ac(a2-3)[GalNAc(b1-4)]Gal(b1-4)Glc
# Method in brief: as §1
# [8] = biological target: Neu5Ac(a2-8)Neu5Ac(a2-8)Neu5Ac
# Method in brief: as §1
# [9] = biological target: Neu5Ac(a2-8)Neu5Ac(a2-8)Neu5Ac(a2-3)Gal(b1-4)Glc
# Method in brief: as §1
# [10] = biological target: Neu5Ac(a2-8)Neu5Ac(a2-8)Neu5Ac(a2-3)[GalNAc(b1-4)]Gal(b1-4)Glc
# Method in brief: as §1
# [11] = biological target: Neu5Ac(a2-8)Neu5Ac(a2-8)Neu5Ac(a2-8)Neu5Ac(a2-3)[GalNAc(b1-4)]Gal(b1-4)Glc
# Method in brief: as §1
# [12] = biological target: Neu5Ac(b2-6)Gal(b1-4)GlcNAc
# Method in brief: as §1
# [13] = biological target: Neu5Ac(b2-6)GalNAc
# Method in brief: as §1
# [14] = biological target: Neu5Ac9Ac(a2-3)Gal(b1-3)GlcNAc
# Method in brief: as §1
# [15] = biological target: Neu5Ac9Ac(a2-3)Gal(b1-4)GlcNAc
# Method in brief: as §1
# [16] = biological target: Neu5Ac9Ac(a2-6)Gal(b1-4)GlcNAc
# Method in brief: as §1
# [17] = biological target: Neu5Gc(a2-3)Gal(b1-3)GlcNAc
# Method in brief: as §1
# [18] = biological target: Neu5Gc(a2-3)Gal(b1-3)[Fuc(a1-4)]GlcNAc
# Method in brief: as §1
# [19] = biological target: Neu5Gc(a2-3)Gal(b1-4)Glc
# Method in brief: as §1
# [20] = biological target: Neu5Gc(a2-3)Gal(b1-4)GlcNAc
# Method in brief: as §1
# [21] = biological target: Neu5Gc(a2-3)Gal(b1-4)[Fuc(a1-3)]GlcNAc
# Method in brief: as §1
# [22] = biological target: Neu5Gc(a2-6)Gal(b1-4)GlcNAc
# Method in brief: as §1
# [23] = biological target: Neu5Gc(a2-6)GalNAc
# Method in brief: as §1
# [24] = biological target: Neu5Gc(b2-6)Gal(b1-4)GlcNAc
# Method in brief: as §1
binder,measurement,setting,value
B1,glycan array binding signal (z-score),[1],-0.228
same,glycan array binding signal (z-score),[2],-0.22
same,glycan array binding signal (z-score),[3],-0.318
same,glycan array binding signal (z-score),[4],-0.271
same,glycan array binding signal (z-score),[5],-0.158
same,glycan array binding signal (z-score),[6],-0.206
same,glycan array binding signal (z-score),[7],-0.292
same,glycan array binding signal (z-score),[8],-0.212
same,glycan array binding signal (z-score),[9],-0.283
same,glycan array binding signal (z-score),[10],-0.266
same,glycan array binding signal (z-score),[11],0.095
same,glycan array binding signal (z-score),[12],-0.315
same,glycan array binding signal (z-score),[13],-0.208
same,glycan array binding signal (z-score),[14],-0.249
same,glycan array binding signal (z-score),[15],-0.26
same,glycan array binding signal (z-score),[16],-0.196
same,glycan array binding signal (z-score),[17],-0.236
same,glycan array binding signal (z-score),[18],-0.214
same,glycan array binding signal (z-score),[19],-0.142
same,glycan array binding signal (z-score),[20],-0.287
same,glycan array binding signal (z-score),[21],-0.202
same,glycan array binding signal (z-score),[22],-0.225
same,glycan array binding signal (z-score),[23],-0.273
same,glycan array binding signal (z-score),[24],-0.198
